According to PubChem BioAssay AID1508624 (National Center for Advancing Translational Sciences (NCATS), 2021):
Hit rate of the full screen: of about 48,000 compounds, about 120 (0.25%) were called active. Roughly 4% stayed inconclusive and do not appear here. The call rests on the fitted dose curve; in most records, active means well fitted activation curve with a large enough effect; inconclusive means small, poorly fitted or top-dose-only effect, or another doubt; inactive means no such curve, though single readings can be large or run the other way. Some of the results follow.

experiment: Primary qHTS for Identification of Small Molecule Activators of Huntingtin-Antisense Promoter Activity; settings: HEK293 HTT-AS promoter firefly luciferase reporter (activity 0% = vehicle and -100% = no light), 24 h; series mostly up to 57.5 µM; activity change, positive = activation: at the top concentration; further: nearly all actives have a fitted effect of over 55% in size
In short: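 Firefly luciferase readout (Dual-Glo, 10 min RT) after 24 h, 37 °C compound exposure (final up to 57.5 uM) of HEK293 reporter cells cultured 24 h beforehand; PTC124 at 50 uM final as control inhibitor; activity scaled vehicle 0%, zero RLU -100%.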

Activity change, positive = activation, inactive:
COc1cc(NC(=O)Cn2cnc(S(=O)(=O)N3CCCC3)c2)cc(OC)c1OC -5.17%
COC(=O)C1=C(C)NC(C)=C(C(=O)OC(C)C)C1c1cccc2nonc12 (stereo not given)
CCN(C(=O)c1cnc2ccc(C)cn2c1=O)c1ccccc1 14.6%
CCOC(=O)C1CCN(C(c2cccc(F)c2)c2c(O)cc(C)n(CCOC)c2=O)CC1 (stereo not given) -17.9%
O=C1OC(OC(=O)c2cccnc2Nc2cccc(C(F)(F)F)c2)c2ccccc21 (stereo not given) -9.84%
CCc1ccc(NC(=O)C2CCN(c3nn4c(=O)cc(C)nc4s3)CC2)cc1 -14.2%
O=C(Nc1ccc2c(c1)CCCN2C(=O)c1cccs1)c1ccccc1Cl -23.8%
N#C[C@H]1C[C@H]2C[C@@H]2N1C(=O)[C@@H](N)C12CC3CC(CC(O)(C3)C1)C2 -14.2%
Cc1cccc(-c2nnc(C3CCN(S(=O)(=O)c4cccc(Cl)c4)CC3)o2)c1 -63.2%
CCOc1cc2[nH]c(=O)n(Cc3ccc(C(=O)N4CCN(c5cccc(Cl)c5)CC4)cc3)c(=O)c2cc1OCC -20.5%
CC(=O)CSc1nnc2[nH]c(=O)cc(N)n12 13.5%
Cn1nc(C(=O)Nc2ccc(F)c(Cl)c2)c2c1-c1ccccc1S(=O)(=O)C2 -19.1%
CCc1ccc(CNC(=O)C2CCN(c3nn4cc(-c5ccc(F)cc5)nc4s3)CC2)cc1 9.78%
CCOC(=O)c1c(C)c(-c2ccccc2)n(CC(=O)NC2CCCCC2)c1C -4.45%
O=C(Cn1c(=O)nc(-c2ccccc2)c2cc(Cl)ccc21)N1CCN(c2ccc(F)cc2)CC1 1.81%
COc1ccc(Br)cc1CN1C(=O)c2ccccc2C1C(=O)NC1CCCCCC1 (stereo not given) -9.53%
COC(=O)c1c(NC(=O)CCCOc2cccc(C)c2)sc2c1C(C(=O)OC)CC2 (stereo not given) -26.2%
COc1cc(Oc2ccnc3cc(OC)c(OC)cc23)ccc1NC(=O)NC(C)c1nccs1 (stereo not given) -24.6%
CCN(CC)C(=O)Cn1c(=O)n(Cc2ccc(C(=O)NCCc3ccc(OC)c(OC)c3)cc2)c(=O)c2ccccc21 -8.94%
CCc1ccc(CN(Cc2cn[nH]c2-c2ccc(OC)cc2)C(=O)Nc2cc(Cl)ccc2OC)cc1 -19.4%
Cc1ccc(-n2ncc(C(=O)NCc3ccco3)c2C2CCN(C(=O)OC(C)(C)C)CC2)c(C)c1 -10.1%
CC(=O)c1ccc(N2C(=O)N(CC(=O)c3ccc(F)cc3)c3ccccc3S2(=O)=O)cc1 -16.9%
Cc1ccc(-n2ncc3c(NC4CCCCCC4)ncnc32)cc1Cl -12.9%
CCCCN(CCCNC(=O)c1cc(Nc2ccc(OC)c(OC)c2)nc2ccccc12)Cc1ccccc1 -19.4%
COc1ccc(S(=O)(=O)NCCc2csc(-c3ccc(F)cc3)n2)cc1F -31.3%
CCOC(=O)C1=C(C)N=C2SCCC(=O)N2C1c1ccc(OCc2ccccc2)cc1 (stereo not given) -18.8%
O=C(Nc1ccc(OC(F)(F)F)cc1)c1cc2ccccn2n1 20%
O=c1nc2n(-c3ccccc3F)c3ccccc3cc-2c(=O)[nH]1 8.72%
COc1cc(OC)c(Nc2nc3ccc(C(=O)c4ccccc4)cc3n3c(C)nnc23)cc1Cl -2.35%
CCCCn1cc2c(c1-c1ccc(Cl)cc1)c(=O)n(C)c(=O)n2C -32.2%
Cc1cc(C)cc(NS(=O)(=O)c2cc3c(cc2C)NC(=O)CO3)c1 -19.3%
CN1N=C(N)c2cn([C@@H]3O[C@H](COP(=O)(O)O)[C@@H](O)[C@@H]3O)c3ncnc1c23 -15.9%
CCOC(=O)c1c(NC(=O)c2ccc(S(=O)(=O)N(CC(C)C)CC(C)C)cc2)sc2c1CCN(C(=O)OCC)C2 -6.13%
CCC(=O)N(CCC(c1ccccc1)c1ccc2c(c1)OCO2)Cc1ccc(OC(C)C)cc1 (stereo not given) -38.8%
COc1ccc(NC(=O)CSc2nnc(-c3nonc3NC(C)=O)n2-c2ccccc2)cc1 -13.9%
COc1ccc(Cl)cc1NC(=O)c1sc2nc3n(c(=O)c2c1C)CCC3 -10%
CCCN(C(=O)Cn1cnc2onc(-c3ccc(F)cc3)c2c1=O)c1cccc(Cl)c1 -33.5%
Cc1cc(C)n(-c2nc3ccccc3nc2Nc2cccc(C)c2C)n1 4.25%
CCOc1ccc(CCNS(=O)(=O)c2cc(Br)cc3c2N(C(C)=O)CC3)cc1OCC -16.3%
CCC(Sc1nc2ccccc2c(=O)n1CCc1ccc(OC)c(OC)c1)C(=O)N(CC)CC (stereo not given) -42%
CC(=O)OCC[N+](C)(C)C -0.547%
COc1cccc(N2CCN(C(=O)Cn3c(-c4cccs4)cc4ccccc43)CC2)c1 -15%
COc1ccc(CN2C(=O)c3ccccc3C2C(=O)NCCc2ccccc2)c(OC)c1 (stereo not given) 3.92%
CC(C)CCNC(=O)CN1N=C(c2ccc(Cl)cc2)CCC1=O -13.7%
CC1=C(C(=O)Nc2ccc(C)cc2C)C(c2cccs2)n2nc(SCc3ccccc3Cl)nc2N1 (stereo not given) -7.94%
C[C@H](c1ccc(F)cc1CCCC(=O)O)N(c1cc(F)ccc1F)S(=O)(=O)c1ccc(Cl)cc1 -22.8%
O=c1cc(-c2ccccc2)n2c(SCc3ccc(F)cc3)nnc2[nH]1 -12.7%
Cc1cn2c(=O)cc(COC(=O)COc3ccccc3C)nc2s1 -0.316%
CCOC(=O)c1c(C)[nH]c(CCC(=O)NCc2ccc(N(C)C)cc2)c1C -28.6%
CCN(Cc1ccccc1)C(=O)Cn1c(=O)n(-c2ccc(C)c(C)c2)c(=O)c2c(C)c(C)sc21 -18.7%
O=c1oc2ccccc2cc1-c1cn2cc(Cc3ccc(Cl)cc3)sc2n1 0.0744%
O=C(Nc1cccc(C(F)(F)F)c1)c1cc2ccc3cccnc3c2[nH]1 6.78%
Cc1ccc(-c2nc(C)c(CCNS(=O)(=O)c3ccc(F)c(C(F)(F)F)c3)s2)cc1 -11.7%
COc1ccc(CNc2oc(-c3ccc(COc4ccccc4C)o3)nc2C#N)cc1 -63.5%
CCn1cc(C(=O)N2CCN(c3ccccc3F)CC2)c(=O)c2cc(S(=O)(=O)N(C)C)ccc21 8.97%
COc1cccc(C(=O)Nc2cccc(-c3cn4c(C)csc4n3)c2)c1OC 14.8%
Cc1cccc(N2CCN(C(=O)CCn3c(=O)c4cccn4c4cccnc43)CC2C)c1 (stereo not given) -33.7%
O=C(Nc1cccc(Cl)c1)c1cc2c(=O)[nH]c3ccccc3c2s1 8.49%
Cc1cccc(-c2nc3c4ccccc4nc(N4CCN(c5cc(C)ccc5C)CC4)n3n2)c1 5.99%
CC1(C)CCC2=C(O1)c1ccccc1C(=O)C2=O -16.9%
Cc1nnc(N2CCCC(C(=O)NCCc3ccc(Cl)cc3)C2)c2nn(-c3ccccc3)c(C)c12 (stereo not given) -25.5%
O=C(Nc1ccc(-c2cn3cccnc3n2)cc1)c1cc(Br)ccc1Cl -15.5%
CCc1ccccc1NC(=O)c1cnc2sc(N3CCCC3)nn2c1=O -16.8%
Cc1ccc(Nc2nc(C)nc(N)c2S(=O)(=O)c2ccccc2)cc1 -15%
CC1=C(C(=O)Nc2ccccc2)C(c2cccn2C)n2ncnc2N1 (stereo not given) -7.65%
Cc1ccc(C)c(Cn2c(C3CC(=O)N(c4ccccc4C)C3)nc3ccccc32)c1 (stereo not given) -40.4%
COc1ccc(Cn2c(=O)c3oc4ccccc4c3n(CC(=O)Nc3ccc(F)cc3F)c2=O)cc1 2.09%
Cc1ccc(Cl)cc1N1CCN(Cc2nnc(-c3ccc4c(c3)OCO4)o2)CC1 0.852%
Cc1cc(NC(=O)C2CCN(S(=O)(=O)c3ccc(Br)s3)CC2)ccc1Br -19.1%
Cc1ccc(CNC(=O)CSc2n[nH]c(-c3ccc(F)cc3)n2)cc1 -27.2%
O=S(=O)(c1ccc2nc(N3CCN(c4cccc(Cl)c4)CC3)ccc2c1)N1CCCCC1 -6.05%
Cc1ccc(NC(=O)CSc2nc(-c3ccco3)cc(C(F)(F)F)n2)cc1 -35.6%
Cc1ccc(NC(=O)CN2C(=O)CCSc3ccc(S(=O)(=O)N4CCCC4)cc32)cc1C -7.26%
Cc1ccc(C)c(OC(=O)CSc2nnc(CNC(=O)c3ccccc3)o2)c1 -3.36%
CC1=C(c2ccc(C)cc2)S(=O)(=O)NC1=NCCCN1CCN(c2ccc(F)cc2)CC1 -31.8%
Cc1cc2oc(C(=O)Nc3ccc(S(=O)(=O)N4CCCCCC4)cc3)cc(=O)c2cc1C 1.07%
CCN(CC)c1ccc(NS(=O)(=O)c2cc3[nH]c(=O)c(=O)[nH]c3cc2C)c(C)c1 -15.2%
CC(C)c1ccc(OC(=O)c2cc(-c3ccccc3)on2)cc1 -2.01%
CCN(CC)c1ccc(NC(=O)CSc2nc(-c3cccs3)cc(C(F)(F)F)n2)cc1 -7.84%
Cc1ccc(NC(=O)Nc2nnc(N(C)Cc3ccccc3)s2)c(C)c1 -7.05%
CC(=O)N1CCc2c(sc3nc(SCC(C)C)n(-c4ccc(F)c(Cl)c4)c(=O)c23)C1 -26.1%
CCCSc1ncc(Cl)c(C(=O)Nc2c(C(=O)Nc3ccc(C)cc3)oc3ccccc23)n1 -6.89%
COC(=O)c1ccc(C2C(C(=O)Nc3ccccc3)=C(C)Nc3nc4ccccc4n32)cc1 (stereo not given) -21.2%
CCc1nc(Oc2cccc(F)c2)c2oc3ccccc3c2n1 0.873%
COCCCNc1oc(-c2ccc(COc3ccc(Cl)cc3)o2)nc1C#N -36.8%
CCCCCNC(=O)CCCCCn1c(=O)[nH]c2ccsc2c1=O -0.753%
COc1ccc(CNC(=O)C2CCN(c3nc4ccccc4[nH]3)CC2)cc1OC -8.55%
O=C(Nc1sc2c(c1C(=O)NCC1CCCO1)CCC2)c1cc(=O)c2ccccc2o1 (stereo not given) 0%
CCOC(=O)c1c(S(=O)(=O)N2CCCC(C(=O)Nc3cccc(C)n3)C2)c(C)n(C)c1C (stereo not given) 7.91%
CCOc1ccc(C2CC(=O)Nc3c2c(=O)nc(SCc2ccccc2C)n3C)cc1OC (stereo not given) -15.9%
OCCN1C[C@H](O)[C@@H](O)[C@H](O)[C@H]1CO -0.786%
CCn1cc(C(=O)OCC(=O)Nc2cccc(C(C)=O)c2)c(=O)c2ccc(C)nc21 -14.6%
COc1ccc(Cn2c(=O)c3oc4ccccc4c3n(Cc3ccc(Cl)cc3)c2=O)cc1 -7.56%
CCOC(=O)c1c(C)[nH]c(C)c1S(=O)(=O)N1CCCC(C(=O)N2CCN(c3ccccc3)CC2)C1 (stereo not given) 7.78%
CCOCCc1nn2c(=O)cc(COC(=O)C3CCCCC3)nc2s1 -6.87%
